# Test results as given in the supplement of paper PMC4604168 (melanoma cell lines).
# This is one part of the list. Many values rest on one well or one pass, so single values are uncertain.
# Tested on: WM1745
# Test: cell count relative to DMSO control; melanoma cells; higher = more viable cells
# Conditions: library dose: standard library concentration; 72 h
# 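Further: cells treated in 1,536-well plates, then fixed and DAPI-stained, with nuclei counted from automated high-throughput microscope images.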
row,Compound,cell count [%]
1,"Cc1ccc(Nc2nccc(N(C)c3ccc4c(C)n(C)nc4c3)n2)cc1S(N)(=O)=O [Pazopanib] + CO[C@@H]1[C@H](N(C)C(=O)c2ccccc2)C[C@H]2O[C@]1(C)n1c3ccccc3c3c4c(c5c6ccccc6n2c5c31)C(=O)NC4 [Midostaurin] (first compound 2 µM, partner dose 0.4 µM)",35.4
2,"O=C(/C=C/c1cccnc1)NCCCCC1CCN(C(=O)c2ccccc2)CC1 + CO[C@@H]1[C@H](N(C)C(=O)c2ccccc2)C[C@H]2O[C@]1(C)n1c3ccccc3c3c4c(c5c6ccccc6n2c5c31)C(=O)NC4 [Midostaurin] (first compound 0.05 µM, partner dose 0.4 µM)",32.4
3,"CC1(C)CCC(c2ccc(Cl)cc2)=C(CN2CCN(c3ccc(C(=O)NS(=O)(=O)c4ccc(N[C@H](CCN5CCOCC5)CSc5ccccc5)c(S(=O)(=O)C(F)(F)F)c4)cc3)CC2)C1 + Cc1ccc(Nc2nccc(N(C)c3ccc4c(C)n(C)nc4c3)n2)cc1S(N)(=O)=O [Pazopanib] (first compound 2 µM, partner dose 2 µM)",7.23
4,"Cc1ccc(Nc2nccc(N(C)c3ccc4c(C)n(C)nc4c3)n2)cc1S(N)(=O)=O [Pazopanib] + NCC(=O)Nc1ccc(-n2nc(C(F)(F)F)cc2-c2ccc3c(ccc4ccccc43)c2)cc1 [OSU03012] (first compound 2 µM, partner dose 5 µM)",14.8
5,"O=C(/C=C/c1cccnc1)NCCCCC1CCN(C(=O)c2ccccc2)CC1 + Cc1cc(Nc2cc(N3CCN(C)CC3)nc(/C=C/c3ccccc3)n2)n[nH]1 [ENMD2076] (first compound 0.05 µM, partner dose 0.2 µM)",50.3

# Tested on: WM3526
# Test: as above
# Conditions: library dose: standard library concentration; 72 h
row,Compound,cell count [%]
1,"CC1(C)CCC(c2ccc(Cl)cc2)=C(CN2CCN(c3ccc(C(=O)NS(=O)(=O)c4ccc(N[C@H](CCN5CCOCC5)CSc5ccccc5)c(S(=O)(=O)C(F)(F)F)c4)cc3)CC2)C1 + Cc1cc([N+](=O)[O-])ccc1NS(=O)(=O)c1cc(Cl)ccc1Cl [FH535] (first compound 2 µM, partner dose 5 µM)",57.1
2,"O=C(/C=C/c1cccnc1)NCCCCC1CCN(C(=O)c2ccccc2)CC1 + CCc1ccc(CCOc2ccc(CC3SC(=O)NC3=O)cc2)nc1 [pioglitazone] (first compound 0.05 µM, partner dose 10 µM)",137
3,"Cc1ccc(Nc2nccc(N(C)c3ccc4c(C)n(C)nc4c3)n2)cc1S(N)(=O)=O [Pazopanib] + COc1cc(N2CCC(N3CCN(C)CC3)CC2)ccc1Nc1ncc(Cl)c(Nc2ccccc2S(=O)(=O)C(C)C)n1 [NVP-TAE684] (first compound 2 µM, partner dose 0.4 µM)",64.7
4,"O=C(/C=C/c1cccnc1)NCCCCC1CCN(C(=O)c2ccccc2)CC1 + COc1ccc(-c2ccc3c(N4CCOCC4)nc(N4C[C@@H](C)O[C@@H](C)C4)nc3n2)cc1CO [KU0063794] (first compound 0.05 µM, partner dose 0.1 µM)",102
5,"Cc1ccc(Nc2nccc(N(C)c3ccc4c(C)n(C)nc4c3)n2)cc1S(N)(=O)=O [Pazopanib] + CCN(CC)CCCCNc1ncc2cc(-c3cc(OC)cc(OC)c3)c(NC(=O)NC(C)(C)C)nc2n1 [PD173074] (first compound 2 µM, partner dose 0.5 µM)",77
6,"CC1(C)CCC(c2ccc(Cl)cc2)=C(CN2CCN(c3ccc(C(=O)NS(=O)(=O)c4ccc(N[C@H](CCN5CCOCC5)CSc5ccccc5)c(S(=O)(=O)C(F)(F)F)c4)cc3)CC2)C1 + NCC(=O)Nc1ccc(-n2nc(C(F)(F)F)cc2-c2ccc3c(ccc4ccccc43)c2)cc1 [OSU03012] (first compound 2 µM, partner dose 5 µM)",17.6
7,"CC1(C)CCC(c2ccc(Cl)cc2)=C(CN2CCN(c3ccc(C(=O)NS(=O)(=O)c4ccc(N[C@H](CCN5CCOCC5)CSc5ccccc5)c(S(=O)(=O)C(F)(F)F)c4)cc3)CC2)C1 + Cc1cc(Nc2cc(N3CCN(C)CC3)nc(/C=C/c3ccccc3)n2)n[nH]1 [ENMD2076] (first compound 2 µM, partner dose 0.2 µM)",71.3
8,"Cc1ccc(Nc2nccc(N(C)c3ccc4c(C)n(C)nc4c3)n2)cc1S(N)(=O)=O [Pazopanib] + c1cc(-c2cnn3cc(-c4ccc(OCCN5CCCCC5)cc4)cnc23)ccn1 [Dorsomorphin] (first compound 2 µM, partner dose 2 µM)",75.4
9,"CC1(C)CCC(c2ccc(Cl)cc2)=C(CN2CCN(c3ccc(C(=O)NS(=O)(=O)c4ccc(N[C@H](CCN5CCOCC5)CSc5ccccc5)c(S(=O)(=O)C(F)(F)F)c4)cc3)CC2)C1 + CCc1ccc(CCOc2ccc(CC3SC(=O)NC3=O)cc2)nc1 [pioglitazone] (first compound 2 µM, partner dose 10 µM)",99.7
10,"Cc1ccc(Nc2nccc(N(C)c3ccc4c(C)n(C)nc4c3)n2)cc1S(N)(=O)=O [Pazopanib] + COC(=O)c1sccc1S(=O)(=O)Nc1ccc(Nc2ccccc2)cc1OC [GSK0660] (first compound 2 µM, partner dose 5 µM)",81.8
11,"Cc1ccc(Nc2nccc(N(C)c3ccc4c(C)n(C)nc4c3)n2)cc1S(N)(=O)=O [Pazopanib] + C#Cc1cccc(Nc2ncnc3cc(OCCOC)c(OCCOC)cc23)c1 [erlotinib] (first compound 2 µM, partner dose 4 µM)",52.2
12,"O=C(/C=C/c1cccnc1)NCCCCC1CCN(C(=O)c2ccccc2)CC1 + CN(NC(=O)CC(=O)NN(C)C(=S)c1ccccc1)C(=S)c1ccccc1 [STA4783] (first compound 0.05 µM, partner dose 0.03 µM)",105
13,"CC1(C)CCC(c2ccc(Cl)cc2)=C(CN2CCN(c3ccc(C(=O)NS(=O)(=O)c4ccc(N[C@H](CCN5CCOCC5)CSc5ccccc5)c(S(=O)(=O)C(F)(F)F)c4)cc3)CC2)C1 + O=C(O)C(=O)Nc1sc2c(c1C(=O)O)CCNC2 [TCS401] (first compound 2 µM, partner dose 8.33333 µM)",84.4
14,"Cc1ccc(Nc2nccc(N(C)c3ccc4c(C)n(C)nc4c3)n2)cc1S(N)(=O)=O [Pazopanib] + O=S(=O)(c1ccccc1)N(CC(F)(F)F)c1ccc(C(O)(C(F)(F)F)C(F)(F)F)cc1 [T0901317] (first compound 2 µM, partner dose 7 µM)",78.1
15,"O=C(/C=C/c1cccnc1)NCCCCC1CCN(C(=O)c2ccccc2)CC1 + COc1ccc(COc2ccc(Cc3cnc(N)nc3N)cc2OC)cc1 [GW2580] (first compound 0.05 µM, partner dose 5 µM)",95.2
16,"Cc1ccc(Nc2nccc(N(C)c3ccc4c(C)n(C)nc4c3)n2)cc1S(N)(=O)=O [Pazopanib] + CCCCCCCCCCCC1=C(O)C(=O)C=C(O)C1=O [Embelin] (first compound 2 µM, partner dose 6 µM)",71.2
17,"Cc1ccc(Nc2nccc(N(C)c3ccc4c(C)n(C)nc4c3)n2)cc1S(N)(=O)=O [Pazopanib] + O=c1cc(-c2cccc3c2Sc2ccccc2S3)oc(N2CCOCC2)c1 [KU55933] (first compound 2 µM, partner dose 5 µM)",77
18,"O=C(/C=C/c1cccnc1)NCCCCC1CCN(C(=O)c2ccccc2)CC1 + O=C(Nc1cccc(Cl)c1)Nc1ncc(CCNc2ncnc3ccsc23)s1 [SNS314] (first compound 0.05 µM, partner dose 0.004 µM)",70.9
19,"O=C(/C=C/c1cccnc1)NCCCCC1CCN(C(=O)c2ccccc2)CC1 + COc1cc(N2CCC(N3CCN(C)CC3)CC2)ccc1Nc1ncc(Cl)c(Nc2ccccc2S(=O)(=O)C(C)C)n1 [NVP-TAE684] (first compound 0.05 µM, partner dose 0.4 µM)",85.6
20,"Cc1ccc(Nc2nccc(N(C)c3ccc4c(C)n(C)nc4c3)n2)cc1S(N)(=O)=O [Pazopanib] + COc1cc2ncnc(Nc3ccc(Oc4ccccc4)cc3)c2cc1OC [SrcI1] (first compound 2 µM, partner dose 10 µM)",55.9
21,"Cc1ccc(Nc2nccc(N(C)c3ccc4c(C)n(C)nc4c3)n2)cc1S(N)(=O)=O [Pazopanib] + OCCn1cc(-c2cnc3nnn(Cc4ccc5ncccc5c4)c3n2)cn1 [PF04217903] (first compound 2 µM, partner dose 5 µM)",83.2
22,"Cc1ccc(Nc2nccc(N(C)c3ccc4c(C)n(C)nc4c3)n2)cc1S(N)(=O)=O [Pazopanib] + Cn1cc(/C=C2\C(=O)Nc3cccnc32)c2ccccc21 [GW441756] (first compound 2 µM, partner dose 2 µM)",85.1
23,"Cc1ccc(Nc2nccc(N(C)c3ccc4c(C)n(C)nc4c3)n2)cc1S(N)(=O)=O [Pazopanib] + OCc1c[nH]c2ccccc12 [Indole-3-carbinol] (first compound 2 µM, partner dose 4 µM)",88.1
24,"CC1(C)CCC(c2ccc(Cl)cc2)=C(CN2CCN(c3ccc(C(=O)NS(=O)(=O)c4ccc(N[C@H](CCN5CCOCC5)CSc5ccccc5)c(S(=O)(=O)C(F)(F)F)c4)cc3)CC2)C1 + COc1cc2c(Oc3ccc4[nH]c(C)cc4c3F)ncnc2cc1OCCCN1CCCC1 [cediranib] (first compound 2 µM, partner dose 2 µM)",87.6
